In article PMC4336329 (PLoS ONE, 2015):
About 14,000 (4.5%) of roughly 310,000 compounds showed an effect of 50% or more. The effect is printed as a negative number. This is one part of the list.

Each compound was assayed against human ether-à-go-go-related gene (hERG) potassium channel (human, UniProt Q12809) (assay: primary screen, population patch clamp on CHO cells stably expressing hERG).
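Note: peak tail current of the secondary pulse compared with the same well before compound.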

Sequence of human ether-à-go-go-related gene (hERG) potassium channel (Q12809 whole entry, looked up): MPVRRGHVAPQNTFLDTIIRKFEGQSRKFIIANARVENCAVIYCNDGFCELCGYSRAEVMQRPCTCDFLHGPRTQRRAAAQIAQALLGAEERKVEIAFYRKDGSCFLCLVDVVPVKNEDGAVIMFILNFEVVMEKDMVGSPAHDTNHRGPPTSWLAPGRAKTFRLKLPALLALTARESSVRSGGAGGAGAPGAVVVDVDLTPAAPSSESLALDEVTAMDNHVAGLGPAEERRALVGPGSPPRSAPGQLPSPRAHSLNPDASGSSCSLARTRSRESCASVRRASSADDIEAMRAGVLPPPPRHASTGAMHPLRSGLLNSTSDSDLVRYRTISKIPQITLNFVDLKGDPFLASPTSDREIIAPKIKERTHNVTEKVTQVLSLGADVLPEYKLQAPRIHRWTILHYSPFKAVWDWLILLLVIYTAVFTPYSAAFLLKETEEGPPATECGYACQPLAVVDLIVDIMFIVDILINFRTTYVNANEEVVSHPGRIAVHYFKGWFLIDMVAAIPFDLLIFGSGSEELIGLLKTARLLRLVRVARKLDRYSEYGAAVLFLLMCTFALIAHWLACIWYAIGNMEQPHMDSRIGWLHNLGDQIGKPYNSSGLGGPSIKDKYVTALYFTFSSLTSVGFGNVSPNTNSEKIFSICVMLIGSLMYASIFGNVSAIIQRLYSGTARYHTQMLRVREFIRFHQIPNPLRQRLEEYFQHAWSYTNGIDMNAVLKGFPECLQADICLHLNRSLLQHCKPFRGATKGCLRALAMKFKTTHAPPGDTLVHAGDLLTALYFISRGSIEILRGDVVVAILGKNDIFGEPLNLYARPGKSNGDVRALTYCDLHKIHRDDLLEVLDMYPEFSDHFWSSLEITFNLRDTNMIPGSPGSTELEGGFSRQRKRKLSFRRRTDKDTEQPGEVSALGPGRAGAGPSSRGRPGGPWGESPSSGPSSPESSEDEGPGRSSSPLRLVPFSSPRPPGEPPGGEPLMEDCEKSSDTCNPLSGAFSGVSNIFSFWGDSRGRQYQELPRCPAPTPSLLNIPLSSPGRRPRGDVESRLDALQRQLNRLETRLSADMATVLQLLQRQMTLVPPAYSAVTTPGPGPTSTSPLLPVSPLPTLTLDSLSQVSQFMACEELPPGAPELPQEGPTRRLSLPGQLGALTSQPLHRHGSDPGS

SMILES | hERG current change (%, negative = inhibition) at 10uM [%]
CN=C1NN=C(c2cc(C)n(-c3c(C)n(C)n(-c4ccccc4)c3=O)c2C)CS1.Cl | 15.4
CC(=O)Nc1ccc(S(=O)(=O)N2CCSC2)cc1 | 1.65
O=C(CSc1nnc(Cn2nnc(-c3ccccc3)n2)n1-c1ccccc1)Nc1ccccc1 | 15.9
COC(=O)C(CCCN1C(=O)c2ccccc2C1=O)(NC(C)=O)c1nn[nH]n1 (centres unmarked) | 12.7
CCN(CC)CCN=Cc1c(O)n(Cc2ccco2)c(=O)[nH]c1=O | 0.932
COC(=O)c1ccccc1NC(=O)Nc1nnc(N2CCC(C)CC2)s1 | 4.81
C#CCNc1nc(CC)nc2c1nnn2Cc1ccccc1F | -0.696
C=C(C)C1Cc2c(C)nn(-c3cccc4cccnc34)c2C1 (centres unmarked) | 0.118
O=C(NNC(=O)c1ccc(-c2ccc([N+](=O)[O-])cc2)o1)c1ccncc1 | -17.9
Cc1ccc(NC(=O)CN(CCc2ccccc2)S(C)(=O)=O)cc1 | -1.81
CCOC(=O)Nc1ccc2c(CN3CCN(S(=O)(=O)c4ccc(C(C)C)cc4)CC3)cc(=O)oc2c1 | 6.35
COc1cc(CN2CCC(Cc3ccccc3)CC2)cc(OC)c1OC.O=C(O)C(=O)O | -52.8
CSC1=NC(C)(C)CC2(C)Nc3ccccc3N12 (centres unmarked) | 10.1
NC(=O)c1cccc2cc3ccccc3cc12 | 19.2
O=S(=O)(Nc1ccccc1N1CCCCC1)c1ccc(Cl)s1 | 3.31
CN1CC(C(=O)c2cccs2)C(c2ccc(Cl)cc2)C1 (centres unmarked) | -49.2
Cc1ccc(CNC(=O)c2ccc(C#CC(C)(C)O)s2)cc1 | -3.51
Cc1cc(OCC(=O)c2ccc(C(F)(F)F)cc2)n2cnnc2n1 | 5.8
CC1CN(C(=O)COC(=O)c2ccc(N(C)C)cc2)CC(C)O1 (centres unmarked) | 8.42

SMILES | hERG current change (%, negative = inhibition) at 10uM [%]
CC(=O)O[C@@]12CO[C@@H]1C[C@H](O)[C@@]1(C)C(=O)[C@H](O)C3=C(C)[C@@H](OC(=O)[C@H](O)[C@@H](NC(=O)OC(C)(C)C)c4ccccc4)C[C@](O)([C@@H](OC(=O)c4ccccc4)[C@H]21)C3(C)C | -5.62
Cc1nnc(NC(=O)C2=COCCO2)s1 | 7.13
Cc1nn(-c2ccccc2)c(C)c1C(=O)NCc1ccccc1F | 3.78
CC(C)(C)n1nnnc1C(c1cccs1)N(Cc1cccnc1)Cc1ccccc1Cl (centres unmarked) | -11.4
Cc1ccccc1C(=O)N1CCC(C(=O)OCc2ccccc2Cl)CC1 | -40.3
CCOC(=O)c1nnn(-c2nonc2N)c1CN(C)C1CCCCC1 | 4.08
COc1ccc(NC(=O)CN2CCCC2)cc1 | 15.7
O=C(Nc1nnc(S(=O)(=O)N2CCCCCC2)s1)c1cccc(Br)c1 | 14.4
O=C(c1ccccn1)N1CCN(C(=O)c2ccccn2)CC1 | 1.19
COc1ccc(-c2cn3nc(SCC(=O)NCC4CCCO4)ccc3n2)cc1 (centres unmarked) | -16.9
CC(On1c(-c2ccccc2)nc2ccc(Cl)cc21)C(=O)O (centres unmarked) | 73.3
O=C(C[n+]1cc(Br)cc(Br)c1)c1ccc(Cl)cc1.[Br-] | -23.3
Cc1cccc(OCC(=O)N2CCC(c3ccccc3)C2)c1 (centres unmarked) | -13.1
O=C(NC1CC(=O)c2sccc21)c1cccc(C(F)(F)F)c1 (centres unmarked) | -14.4
COc1cc2c(=O)n(CCC(=O)NCC3CCCO3)c(=O)n(CC(=O)Nc3ccccc3C)c2cc1OC (centres unmarked) | -36.7
COc1ccc(NC(=O)CN2C(=O)CSc3ccc(S(=O)(=O)N4CCCC4)cc32)cc1OC | -1.88
CCOC(=O)c1cc(NC(=O)c2ccco2)ccc1N1CCOCC1 | -0.103
COC(=O)c1cc(S(=O)(=O)N2CCN(Cc3ccccc3)CC2)cn1C | -12.9
COCCCNC(=O)C(C#N)c1nc2ccccc2nc1N1CCCC1 (centres unmarked) | -0.404

SMILES | hERG current change (%, negative = inhibition) at 10uM [%]
CCOC(=O)C1(Cc2ccccc2C(F)(F)F)CCN(C(C)CCn2cccn2)CC1 (centres unmarked) | -65.6
Cc1cc(NC(=O)CSc2nnnn2C)n(-c2ccccc2)n1 | -10.8
O=C(COC(=O)CNC(=O)c1ccc(Cl)cc1)Nc1ccc2c(c1)OCCO2 | 9.35
Cc1cc(C)n(CC(=O)O)n1 | 9.49
CCOc1cc(CNCC(O)c2ccccc2)cc(Cl)c1OC.Cl (centres unmarked) | -7.78
CC(C)CC(C(=O)OCC(=O)c1c(N)n(C)c(=O)n(C)c1=O)N1C(=O)c2ccccc2C1=O (centres unmarked) | -27
CC(C)C(NS(=O)(=O)c1cccc2nsnc12)C(=O)N1CCn2c1nc1ccccc12 (centres unmarked) | -14.2
C=CCNC(=S)N/N=C(\C)c1ccccn1 | -16.3
CCOC(=O)c1sc(SC)nc1N | 17.8
Cc1ccc(CSc2ccc(-c3ccc4c(c3)OCO4)nn2)cc1 | 0.231
Cc1ccccc1N=C1Nc2ccccc2CS1 | 10.5
CCn1c(=O)n(CC)c2cc(N3CCCC3)c(NC(=O)c3ccc(F)cc3)cc21 | -4.99
CC1=C(CC(=O)O)c2cc(F)ccc2/C1=C\c1ccc(S(C)=O)cc1 (centres unmarked) | -0.957
Cc1cc(NC(=O)c2ccco2)ccc1-n1cnnn1 | -3.71
Cc1nnc(SCc2cc(=O)[nH]c(N3CCCCC3)n2)s1 | 5.72
COc1ccc(C(CNC(=O)c2c(C)nn(Cc3ccccc3)c2Cl)N2CCOCC2)cc1 (centres unmarked) | -20.8
CC(NC(=O)OC(C)(C)C)C(=O)Oc1ccc2ccc(=O)oc2c1 (centres unmarked) | 7.55
O=C(Nc1ccccc1C(=O)Nc1ccccc1)c1ccccc1Br | 16.2
